Results reported in PMC4336329 (PLoS ONE, 2015).
The whole screen tested about 310,000 compounds, of which about 2,200 (0.71%) showed an effect of 50% or more. The effect is printed as a negative number. The list shows a part of the results.

What follows are compounds tested against human ether-à-go-go-related gene (hERG) potassium channel (human, UniProt Q12809) (assay: primary screen, population patch clamp on CHO cells stably expressing hERG).
human ether-à-go-go-related gene (hERG) potassium channel, sequence (Q12809 whole entry, looked up): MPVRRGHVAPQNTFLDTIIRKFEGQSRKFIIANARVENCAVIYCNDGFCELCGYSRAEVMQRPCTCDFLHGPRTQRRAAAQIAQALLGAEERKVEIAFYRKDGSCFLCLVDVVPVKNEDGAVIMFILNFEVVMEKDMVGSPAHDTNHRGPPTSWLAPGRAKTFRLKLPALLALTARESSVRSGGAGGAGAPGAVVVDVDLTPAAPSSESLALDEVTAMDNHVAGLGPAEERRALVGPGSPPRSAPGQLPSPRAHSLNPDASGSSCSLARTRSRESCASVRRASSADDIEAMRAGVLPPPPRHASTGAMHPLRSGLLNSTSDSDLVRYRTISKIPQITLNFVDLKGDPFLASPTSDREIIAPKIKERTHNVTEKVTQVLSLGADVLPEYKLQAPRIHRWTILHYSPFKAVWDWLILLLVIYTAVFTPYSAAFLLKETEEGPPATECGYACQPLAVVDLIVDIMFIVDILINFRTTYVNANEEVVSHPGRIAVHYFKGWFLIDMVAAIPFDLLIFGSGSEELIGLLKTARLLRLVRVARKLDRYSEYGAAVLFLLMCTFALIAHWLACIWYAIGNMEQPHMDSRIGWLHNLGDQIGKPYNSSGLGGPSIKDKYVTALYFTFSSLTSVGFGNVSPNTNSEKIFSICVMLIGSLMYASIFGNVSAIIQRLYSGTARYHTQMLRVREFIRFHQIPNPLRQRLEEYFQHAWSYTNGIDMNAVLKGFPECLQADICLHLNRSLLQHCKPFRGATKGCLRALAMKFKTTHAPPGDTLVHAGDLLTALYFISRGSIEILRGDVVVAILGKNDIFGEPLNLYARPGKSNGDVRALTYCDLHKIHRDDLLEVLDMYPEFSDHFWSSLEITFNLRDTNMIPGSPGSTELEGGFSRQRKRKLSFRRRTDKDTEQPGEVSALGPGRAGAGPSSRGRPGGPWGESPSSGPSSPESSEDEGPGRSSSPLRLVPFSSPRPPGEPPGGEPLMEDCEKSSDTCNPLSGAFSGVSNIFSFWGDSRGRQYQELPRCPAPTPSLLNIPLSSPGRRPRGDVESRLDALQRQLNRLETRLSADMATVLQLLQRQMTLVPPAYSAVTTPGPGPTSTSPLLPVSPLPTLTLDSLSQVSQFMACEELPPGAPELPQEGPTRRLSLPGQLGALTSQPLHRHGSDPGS

Structure (SMILES)	hERG current change (%, negative = inhibition) at 1uM [%]
CCOc1cc(C#N)c(NC(=O)c2cccnc2Cl)cc1OCC	4.4
O=C(Nc1ccccc1Cl)Oc1ccc2ccccc2c1	4.1
Cc1nnc(SCC(=O)Nc2ncc(S(=O)(=O)c3ccc([N+](=O)[O-])cc3)s2)s1	10.9
COc1ccc(C)cc1NC(=O)CSc1nc2ccccc2nc1N1CC(C)OC(C)C1 (stereo not shown)	18.7
CC(=O)c1c(COC(=O)c2ccncc2)nc2ccccc2[n+]1[O-]	11.3
CCN1CCCC1CNC(=O)c1cc2c(=O)n(C)c3ccccc3c2n1C (stereo not shown)	-4.16
CCCNc1c(NS(=O)(=O)c2ccc(C3CCCCC3)cc2)c(=O)oc2ccccc12	20.1
CN(C)c1ccc(NC(=O)c2ccc3c(c2)nnn3C)cc1	9.27
CC1=CC(=C(C#N)C#N)C=C(C)N1Cc1ccc(Cl)cc1	11.9
CCN(CC)C(=O)Cn1cc(S(=O)(=O)CC(=O)NC2CCCCC2)c2ccccc21	6.21
COC(=O)CNC(=O)c1ccc(NS(=O)(=O)c2cc([N+](=O)[O-])ccc2Cl)cc1	14
CS/C(=N\S(=O)(=O)c1ccc(N)cc1)NS(=O)(=O)c1cccs1	3.45
CN(c1ccc(OCC(=O)N2CCCCC2)cc1)S(=O)(=O)c1cccs1	0.858
CC(=O)c1cc(-c2ccccc2)n(CCC(=O)NCc2cccs2)c1C	0.227
Cc1ccccc1OCC(=O)NC(=S)Nc1ccc(S(=O)(=O)NC2CCCCC2)cc1	12.4
CN(C)C(=O)Oc1ccc([N+](=O)[O-])cc1	15
Cc1cc(C)c[n+](C2=C([O-])c3ccccc3C(=O)/C2=N\S(=O)(=O)c2cccs2)c1	-2.22
COc1cc(/C=C/C(=O)OCC(=O)N2CCN(C(=O)c3ccco3)CC2)ccc1O	4.82
CC(=O)Oc1ccc2c(=O)oc(-c3ccc([N+](=O)[O-])cc3)nc2c1	-5.62
COc1ccc(-c2nn(-c3ccccc3)cc2C(=O)NCC(c2cccs2)N2CCOCC2)cc1 (stereo not shown)	2.71
CC(C)(C)c1nnc(SCC(=O)c2ccccc2)n(N)c1=O	5.12
CCOC(=O)c1c(N)sc(C(=O)N2CCOCC2)c1C	6.02

Structure (SMILES)	hERG current change (%, negative = inhibition) at 1uM [%]
CNc1cncc(C(=O)O)c1	11.5
CC1=NOC(=O)/C1=C\c1ccc(-c2cc(Cl)ccc2Cl)o1	13.4
CN(C)Cc1ccc(-c2nc3cccc4c3n2CCNC4=O)cc1	-0.249
COc1ccc(Br)cc1S(=O)(=O)n1ccnc1C	-4.55
NC(=O)Cc1ccc(C(=O)c2ccccc2)s1	14.6
CSc1cccc(NC(=S)NN(C)C)c1	4.89
CCCC(=O)NC(Nc1ccc(S(=O)(=O)Nc2cc(C)on2)cc1)(C(F)(F)F)C(F)(F)F	18
CCn1nnnc1SCCSc1nnnn1CC	8.1
CN(C)c1ccc(/C=N/Nc2cc(N3CCOCC3)nc(N3CCOCC3)n2)cc1	5.71
CC(=O)Nc1ccc(S(=O)(=O)N2CCC(C(=O)NCCC(=O)NCc3ccccc3)CC2)cc1	17.1
C#CCNC(=O)C1=C[C@H](c2ccc(C#C)cc2)C[C@H](OCc2ccc(CO)cc2)O1	10.1
COC(=O)c1scc(C)c1S(=O)(=O)Nc1ccc(C)cc1	12.7
CCc1ccc(CC2(O)CC(C)N(C)CC2C)cc1 (stereo not shown)	2.1
Cc1cccc(-c2nnc(SCC(=O)Nc3cc(C)on3)n2C)c1	14.3
Cc1cc(C(=S)N2CCOCC2)c(C)n1-c1ccc(F)cc1	0.42
COc1cccc(N2CCN(CC(=O)NCc3cccs3)CC2)c1	9.39
COc1cc(CC(=O)OCC(=O)Nc2cc([N+](=O)[O-])ccc2Cl)cc(OC)c1OC	-2.69
CCC(C(=O)Nc1cc(OC)c(NC(=O)c2ccccc2)cc1OC)c1ccccc1 (stereo not shown)	12.9
CC1(C)CC(=O)C2=C(C1)NC(=O)CC2c1ccc(N(CCC#N)CCC#N)cc1 (stereo not shown)	12.4
Cc1ccc(S(=O)(=O)CC(=O)c2cc(C)c(OC(=O)N(C)C)c(C)c2)cc1	18.6
O=C(N/N=C/c1ccc(OCc2ccccc2)cc1)c1ccco1	12.1
